The list shows a part of the results.
What was measured:
Assay in all cases: glycan array binding signal (z-score within array); higher = stronger binding
Details in all cases: glycan notation: IUPAC condensed, linker removed
[1] = target: Fuc(a1-2)Gal(b1-4)GlcNAc(b1-3)Gal(b1-4)GlcNAc(b1-3)Gal(b1-4)GlcNAc
How it was run: (§1)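 Columns mapping to the same glycan were averaged after glycan names were converted to IUPAC-condensed notation. The data come from 3228 arrays in the Consortium for Functional Glycomics database, limited to those with an available protein sequence. Binding is reported as a within-array Z-score averaged across arrays of one protein sequence and across linkers.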

[2] = target: Fuc(a1-2)Gal(b1-4)GlcNAc(b1-3)GalNAc
How it was run: as §1

[3] = target: Fuc(a1-2)Gal(b1-4)GlcNAc(b1-3)[Fuc(a1-2)Gal(b1-4)GlcNAc(b1-6)]GalNAc
How it was run: as §1

[4] = target: Fuc(a1-2)Gal(b1-4)GlcNAc(b1-3)[Fuc(a1-3)[Gal(b1-4)]GlcNAc(b1-6)]Gal(b1-4)Glc
How it was run: as §1

[5] = target: Fuc(a1-2)Gal(b1-4)GlcNAc(b1-6)GalNAc
How it was run: as §1

[6] = target: Fuc(a1-2)Gal(b1-4)GlcNAc6S
How it was run: as §1

[7] = target: Fuc(a1-2)Gal(b1-4)[Fuc(a1-3)]GlcNAc
How it was run: as §1

[8] = target: Fuc(a1-2)Gal(b1-4)[Fuc(a1-3)]GlcNAc(b1-2)Man(a1-3)[Fuc(a1-2)Gal(b1-4)[Fuc(a1-3)]GlcNAc(b1-2)Man(a1-6)]Man(b1-4)GlcNAc(b1-4)[Fuc(a1-6)]GlcNAc
How it was run: as §1

[9] = target: Fuc(a1-2)Gal(b1-4)[Fuc(a1-3)]GlcNAc(b1-2)[Fuc(a1-2)Gal(b1-4)[Fuc(a1-3)]GlcNAc(b1-4)]Man(a1-3)[Fuc(a1-2)Gal(b1-4)[Fuc(a1-3)]GlcNAc(b1-2)Man(a1-6)]Man(b1-4)GlcNAc(b1-4)GlcNAc
How it was run: as §1

[10] = target: Fuc(a1-2)Gal(b1-4)[Fuc(a1-3)]GlcNAc(b1-3)Gal(b1-4)[Fuc(a1-3)]GlcNAc
How it was run: as §1

[11] = target: Fuc(a1-2)Gal(b1-4)[Fuc(a1-3)]GlcNAc(b1-3)Gal(b1-4)[Fuc(a1-3)]GlcNAc(b1-3)Gal(b1-4)[Fuc(a1-3)]GlcNAc
How it was run: as §1

[12] = target: Fuc(a1-2)Gal(b1-4)[Fuc(a1-3)]GlcNAc(b1-3)GalNAc
How it was run: as §1

[13] = target: Fuc(a1-2)Gal(b1-4)[Fuc(a1-3)]GlcNAc(b1-3)[Neu5Ac(a2-6)Gal(b1-4)GlcNAc(b1-6)]Gal(b1-4)Glc
How it was run: as §1

[14] = target: Fuc(a1-2)Gal3S(b1-4)GlcNAc
How it was run: as §1

[15] = target: Fuc(a1-2)Gal6S(b1-3)GlcNAc
How it was run: as §1

[16] = target: Fuc(a1-2)Gal6S(b1-3)GlcNAc6S
How it was run: as §1

[17] = target: Fuc(a1-2)Gal6S(b1-4)Glc
How it was run: as §1

[18] = target: Fuc(a1-2)Gal6S(b1-4)Glc6S
How it was run: as §1

[19] = target: Fuc(a1-2)[Gal(a1-3)]Gal
How it was run: as §1

[20] = target: Fuc(a1-2)[Gal(a1-3)]Gal(b1-3)GalNAc
How it was run: as §1

[21] = target: Fuc(a1-2)[Gal(a1-3)]Gal(b1-3)GalNAc(b1-3)Gal(a1-4)Gal(b1-4)Glc
How it was run: as §1

[22] = target: Fuc(a1-2)[Gal(a1-3)]Gal(b1-3)GlcNAc
How it was run: as §1

[23] = target: Fuc(a1-2)[Gal(a1-3)]Gal(b1-3)GlcNAc(b1-2)Man(a1-3)[Fuc(a1-2)[Gal(a1-3)]Gal(b1-3)GlcNAc(b1-2)Man(a1-6)]Man(b1-4)GlcNAc(b1-4)GlcNAc
How it was run: as §1

[24] = target: Fuc(a1-2)[Gal(a1-3)]Gal(b1-3)GlcNAc(b1-2)Man(a1-3)[Fuc(a1-2)[Gal(a1-3)]Gal(b1-3)GlcNAc(b1-2)Man(a1-6)]Man(b1-4)GlcNAc(b1-4)[Fuc(a1-6)]GlcNAc
How it was run: as §1

[25] = target: Fuc(a1-2)[Gal(a1-3)]Gal(b1-3)GlcNAc(b1-3)GalNAc
How it was run: as §1

[26] = target: Fuc(a1-2)[Gal(a1-3)]Gal(b1-3)GlcNAc(b1-6)GalNAc
How it was run: as §1

[27] = target: Fuc(a1-2)[Gal(a1-3)]Gal(b1-4)Glc
How it was run: as §1

[28] = target: Fuc(a1-2)[Gal(a1-3)]Gal(b1-4)GlcNAc
How it was run: as §1

[29] = target: Fuc(a1-2)[Gal(a1-3)]Gal(b1-4)GlcNAc(b1-2)Man
How it was run: as §1

[30] = target: Fuc(a1-2)[Gal(a1-3)]Gal(b1-4)GlcNAc(b1-2)Man(a1-3)[Fuc(a1-2)[Gal(a1-3)]Gal(b1-4)GlcNAc(b1-2)Man(a1-6)]Man(b1-4)GlcNAc(b1-4)GlcNAc
How it was run: as §1

B1: SialidaseA (Arthrobacter ureafaciens) (protein)
chain: MRSNSTSAPSLVRRAATGVLTCAVSIGLLAGLGLPAQAAPTPPNSPTLPPGSFSETNLAADRTAANFFYRIPALTYLGNDVVLAAWDGRPGSAADAPNPNSIVQRRSTDGGKTWGPVQVIAAGHVADASGPRYGYSDPSYIYDAEANKVFAFFVYSKDQGFGGSQFGNDDADRNVISSAVIESSDAGVTWSQPRLITSVTKPGTSKTNPAAGDVRSNFASSGEGIQLKYGPHKGRLIQQYAGDVRQADGSNKIQAYSVYSDDHGVTWHKGANVGDRMDENKTVELSDGRVLLNSRDNANRGYRKVAVSTDGGATYGPVSQDTELPDPANNGAIARMFPNAAQGSADAKKLIFTNANSKTGRENVSARVSCDDGETWPGVRTIRSGFSAYSTVTRLADGKFGVLYEGNYTDNMPFATFDDAWLNYVCAPLAVPAVNIAPSATQEVPVTVTNQEATTLSGATATVYTPSGWSATTVPVPDVAPGASVTVTVALTAPADASGPRSLNAAFTTADGRVSQFTFTATTPVAPQVGLTITGSAPARDVAANPYQAGDVLGYTLNVKSTANVAANSVPLTGTFDSGFLPPAAPNCRYNNLAAGASYNCTTAKHTITAADMERGYFVPEATFSITSTTTPSLTKTVQFTGAAVALRDGLISADISGARTDVGRDLATRPYAAGELVPYAFTVKNTSPFVEQVVPTAGNFSPFLPAGAGNCRYLSLPAGQSYECATPRHAVTAEEVEQGFFVPDTTWEVSAAGQSTRTYRINGGEVDLLVRDAALSATVVAEWKDADGDRFASAGDPVTFTYTVGNAGNVALTGLEAPDAGISLPFLAPGDTATATREHVLTAADVAGGSLAASAFEATARNGSKEVTATAEGQPLELKVQPAQPSKEPELTVQDLEDQTPPFDLGTAFKYRTGQKVSLAGLEYGQWYYVYLNKTGYRLGWMFPTTGDTVEFILPPEVRNGRDDVVVLDKDGRRVSFDRLQVTPKGEKI
glycan array binding signal (z-score) [1]: 0.023 | glycan array binding signal (z-score) [2]: -0.258 | glycan array binding signal (z-score) [3]: -0.492 | glycan array binding signal (z-score) [4]: -0.604 | glycan array binding signal (z-score) [5]: -0.456 | glycan array binding signal (z-score) [6]: -0.419 | glycan array binding signal (z-score) [7]: -0.312 | glycan array binding signal (z-score) [8]: 0.073 | glycan array binding signal (z-score) [9]: 0.318 | glycan array binding signal (z-score) [10]: 0.217 | glycan array binding signal (z-score) [11]: -0.03 | glycan array binding signal (z-score) [12]: -0.238 | glycan array binding signal (z-score) [13]: -0.44 | glycan array binding signal (z-score) [14]: -0.739 | glycan array binding signal (z-score) [15]: -0.742 | glycan array binding signal (z-score) [16]: -0.514 | glycan array binding signal (z-score) [17]: -0.661 | glycan array binding signal (z-score) [18]: -0.896 | glycan array binding signal (z-score) [19]: -0.486 | glycan array binding signal (z-score) [20]: 0.077 | glycan array binding signal (z-score) [21]: -0.711 | glycan array binding signal (z-score) [22]: -0.478 | glycan array binding signal (z-score) [23]: 0.319 | glycan array binding signal (z-score) [24]: -0.267 | glycan array binding signal (z-score) [25]: -0.765 | glycan array binding signal (z-score) [26]: -0.704 | glycan array binding signal (z-score) [27]: -0.382 | glycan array binding signal (z-score) [28]: -0.699 | glycan array binding signal (z-score) [29]: -0.252 | glycan array binding signal (z-score) [30]: -0.031

Reference: the supplement of paper PMC8728848
